The results in this text go back to paper PMC3790000, “The Extended Transmembrane Orai1 N-terminal (ETON) Region Combines Binding Interface and Gate for Orai1 Activation by STIM1*^([image sbox.jpg])^♦” (The Journal of Biological Chemistry, 2013).

For this test, the target named is T1, YFP-STIM1 233–485 (human, UniProt Q13586-1 in part).
T1 construct: the YFP fluorescence is the read-out of the thermophoresis; also called STIM1 233–485 C-terminal fragment; slightly extended OASF fragment; source: HEK293, transfected, in lysate (supernatant after Nonidet P40 lysis)
In words: MST; monolith NT.115 (Nanotemper); YFP-STIM1 233–485 (or free YFP) in HEK293 cell lysate kept constant, Orai1 peptide varied, up to 16 dilutions, 5 min incubation, glass capillaries; curve fitted to a one-site binding model. To be noted: one partner purified.

B1: Orai1 N-terminal peptide […] (peptide)
peptide: not shown
notes: also called Orai1 NT([…]); Orai1 […]; source: synthetic peptide, bought: peptide 2.0
The molecule B1 came in with a Kd of 246 ± 88 µM.

As usually defined, the Kd is the free concentration of one partner at which half of the binding sites on the other are occupied at equilibrium, for simple one-to-one binding.
